Results from PubChem BioAssay (NCI).
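Following 48 hours of exposure in 96-well plates, responses at five concentrations were used to interpolate endpoints linearly. The concentration for 50% growth inhibition is given as GI50. Definition used: TGI = concentration required for complete inhibition of growth.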

System: NCI-H322M lung
Assay: DTP human tumour cell line panel, 48 h

SMILES | GI50 | TGI
C#Cc1ccc(C(=O)NCc2ccc(/C=C/C(=O)c3nccn3C)cc2)cc1 | 3.78 µM | > 14.3 µM
CC(C)=CCc1c2c(c(O)c3c1O[C@]14C(=C[C@@H]5C[C@H]1C(C)(C)O[C@@]4(C/C=C(/C)C(=O)O)C5=O)C3=O)C=CC(C)(C)O2 | 15.4 µM | 30.2 µM
